# Reference: the supplement of paper PMC7826260
# The other results are listed elsewhere or left out. The data describe in vitro nicking of single-stranded DNA by Rep domains at 3 µM enzyme and 37 °C for 1 h; the strands have 90 letters, of which the middle is given. Numbers give uncut DNA relative to the enzyme-free pool, as log2; uncut sequences lie near 0, cut ones below; no hit call is given. Because reads are shares of a total, they shift together; where an enzyme cuts many sequences, the uncut ones exceed 0.
# How the values were obtained:
# Experiment in all cases: uncleaved DNA left, log2 of reads against the no-enzyme library (log2 ratio); higher = less cleavage (more negative = more Rep cleavage of the k-mer); sequences stand for … in CTCGTCCG…ACCGGAGA
# [1] = tested on: T1, Rep nickase domain of Muscovy duck circovirus
# T1 sequence (protein, residues 1-111, tag omitted): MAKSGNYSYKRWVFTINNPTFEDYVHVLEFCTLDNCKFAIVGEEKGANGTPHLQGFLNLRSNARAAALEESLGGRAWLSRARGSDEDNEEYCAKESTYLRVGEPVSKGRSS
# Method: (§1)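 A pool of 90-nt single-stranded DNAs with seven random bases just before the constant AC of the nick site (name = the seven bases) was cut by 3 µM recombinant His6-SUMO-tagged Rep nickase domain (300 nM DNA, 50 mM HEPES pH 8.0, 50 mM NaCl, 1 mM MnCl2, 1 h, 37 °C, three replicates). Uncut DNA was amplified and sequenced.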
# [2] = tested on: T2, Rep nickase domain of banana bunchy top virus
# T2 sequence (protein, residues 1-94, tag omitted): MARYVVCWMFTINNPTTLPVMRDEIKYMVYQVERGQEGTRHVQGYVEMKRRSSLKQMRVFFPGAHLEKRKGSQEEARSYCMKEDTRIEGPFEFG
# Method: as §1
# [3] = tested on: T3, Rep nickase domain of cabbage leaf curl virus
# T3 sequence (protein, residues 1-116, tag omitted): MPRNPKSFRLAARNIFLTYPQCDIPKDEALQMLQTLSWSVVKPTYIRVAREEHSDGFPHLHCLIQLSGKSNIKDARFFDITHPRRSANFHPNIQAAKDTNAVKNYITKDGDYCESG
# Method: as §1
# [4] = tested on: T4, Rep nickase domain of chickpea chlorotic dwarf virus
# T4 sequence (protein, residues 1-124, tag omitted): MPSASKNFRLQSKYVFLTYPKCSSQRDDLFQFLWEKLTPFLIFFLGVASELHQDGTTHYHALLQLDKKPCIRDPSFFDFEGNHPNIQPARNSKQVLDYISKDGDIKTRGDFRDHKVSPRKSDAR
# Method: as §1
# [5] = tested on: T5, Rep nickase domain of faba bean necrotic yellows virus
# T5 sequence (protein, residues 1-98, tag omitted): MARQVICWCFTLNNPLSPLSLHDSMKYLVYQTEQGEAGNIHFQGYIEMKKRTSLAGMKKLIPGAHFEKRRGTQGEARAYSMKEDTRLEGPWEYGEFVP
# Method: as §1
# [6] = tested on: T6, Rep nickase domain of maize striate mosaic virus
# T6 sequence (protein, residues 1-117, tag omitted): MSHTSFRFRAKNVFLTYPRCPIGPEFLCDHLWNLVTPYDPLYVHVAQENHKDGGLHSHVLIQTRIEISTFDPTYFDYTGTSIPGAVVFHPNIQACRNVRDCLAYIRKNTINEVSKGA
# Method: as §1
# [7] = tested on: T7, Rep nickase domain of porcine circovirus 2
# T7 sequence (protein, residues 2-116, tag omitted): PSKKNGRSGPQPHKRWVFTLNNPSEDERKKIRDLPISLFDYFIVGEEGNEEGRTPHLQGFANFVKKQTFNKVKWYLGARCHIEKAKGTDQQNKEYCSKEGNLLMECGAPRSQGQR
# Method: as §1
# [8] = tested on: T8, Rep nickase domain of tomato yellow leaf curl virus
# T8 sequence (protein, residues 1-136, tag omitted): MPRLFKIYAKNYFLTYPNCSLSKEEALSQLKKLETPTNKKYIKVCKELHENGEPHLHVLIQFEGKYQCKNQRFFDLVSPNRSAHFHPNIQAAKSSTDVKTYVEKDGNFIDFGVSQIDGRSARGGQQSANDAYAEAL
# Method: as §1
# [9] = tested on: T9, Rep nickase domain of wheat dwarf virus
# T9 sequence (protein, residues 1-137, tag omitted): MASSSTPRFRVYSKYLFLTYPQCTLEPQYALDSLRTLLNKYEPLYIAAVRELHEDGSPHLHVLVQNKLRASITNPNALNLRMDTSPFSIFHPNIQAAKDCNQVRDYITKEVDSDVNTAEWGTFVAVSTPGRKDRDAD
# Method: as §1
Sequence,uncleaved DNA left (log2) [1],uncleaved DNA left (log2) [2],uncleaved DNA left (log2) [3],uncleaved DNA left (log2) [4],uncleaved DNA left (log2) [5],uncleaved DNA left (log2) [6],uncleaved DNA left (log2) [7],uncleaved DNA left (log2) [8],uncleaved DNA left (log2) [9]
GGGTCAT,0.0506,0.243,0.929,2.19,0.0597,2.37,0.174,0.0251,0.138
CTCGGCG,0.128,0.0699,-0.698,0.431,0.0813,-0.658,0.0449,0.0143,-0.116
TAGCCGC,-0.0807,-0.145,-0.63,-0.919,-0.0842,-0.991,-0.0948,0.0118,-0.18
GGTTTAA,0.0967,0.153,0.41,0.992,0.064,1.8,0.113,0.187,0.248
TACTTAC,0.0782,-0.00622,-0.109,-2.05,0.0186,-0.566,-0.487,-0.0342,0.0419
ATACAAG,0.172,0.0558,-0.793,-0.455,0.0572,-1.18,0.187,-0.00787,-0.0557
CCCATTG,0.123,-0.0237,-0.777,-0.614,-0.0119,-1.31,0.0204,-0.0422,-0.0704
CTATCCC,0.0201,0.0466,-0.00734,-0.137,0.0665,-0.319,0.0176,0.00118,0.0668
CAGTAGG,0.0224,-0.0513,-0.14,0.178,-0.0429,-0.817,-0.137,-0.0639,-0.105
TTCCAGC,-0.0667,-0.0339,-0.153,-0.479,0.00238,-0.872,0.0566,0.0297,-0.0129
TGACAGA,0.0588,0.05,0.554,1.14,0.122,1.43,0.178,0.0397,0.147
AAACTAA,0.0821,0.0638,-0.111,-1.15,0.0698,-0.531,0.0163,-0.0673,0.114
CCAGCAC,-0.0853,0.0263,-0.217,-0.591,-0.0877,-0.772,-0.0131,-0.211,-0.0749
AGGTTCA,-0.0277,0.00398,0.09,-0.266,0.0523,0.223,-0.157,0.164,0.187
GGCCACA,-0.0102,0.0769,0.497,1.15,-0.0294,1.72,0.0943,0.0465,0.0736
CTCCCCT,0.0256,-0.0346,-0.0158,-1.64,0.0436,-0.362,-0.0862,0.104,0.0082
CCACTGT,0.0141,-0.0694,-0.0991,-0.0314,-0.167,0.185,-0.147,-0.12,-0.109
AGACATA,-0.0278,0.0567,0.562,1.04,0.0729,1.85,0.0203,0.0751,0.12
GGGGAAT,0.174,0.214,0.99,2.29,0.0892,2.47,0.409,0.208,0.282
GACCGTT,-0.0718,0.045,0.154,-0.316,-0.0295,0.548,-0.651,0.0148,-0.0117

Sequence,uncleaved DNA left (log2) [1],uncleaved DNA left (log2) [2],uncleaved DNA left (log2) [3],uncleaved DNA left (log2) [4],uncleaved DNA left (log2) [5],uncleaved DNA left (log2) [6],uncleaved DNA left (log2) [7],uncleaved DNA left (log2) [8],uncleaved DNA left (log2) [9]
GTCGTTC,0.0308,0.0635,0.384,0.776,0.000902,1.64,0.0685,0.0806,0.09
TATTGAA,-2.59,-0.496,-0.353,-1.13,-0.0606,-1.02,-2.43,0.0819,-0.0735
TGCGTTG,-0.0609,-0.148,-0.0921,0.285,0.0105,1.01,0.0969,-0.139,-0.0256
TTATGAC,-0.038,-0.0896,0.156,0.0859,-0.0245,-0.384,-0.0322,-0.0237,-0.0775
GTACCAA,0.0216,0.15,0.289,0.82,0.0746,1.38,0.0409,0.208,0.105
CAACCTG,0.0067,-0.0149,-0.212,-0.567,-0.0599,0.126,-0.319,-0.206,0.0101
ATGCGCA,-0.0184,0.0602,-0.441,-0.454,-0.0181,-0.995,0.0125,-0.00294,0.000879
TGAGGGC,-0.0793,-0.0598,0.219,0.594,0.0479,0.526,0.0279,-0.103,-0.0812
GCACTTA,-0.226,-0.14,-0.0797,-0.384,-0.176,0.0316,-0.19,-0.112,-0.247
TTCGCAC,-0.00946,-0.105,-0.231,-0.497,-0.169,-1.11,-0.112,-0.0344,0.0561
GTTGACC,0.0186,0.109,0.203,0.726,0.00701,0.963,0.193,0.0324,0.0502
AAACCGC,0.0412,-0.0372,-0.586,-0.927,-0.0392,-1.02,-0.0896,-0.116,-0.0613
GTTTCGG,0.0323,0.0865,0.539,1.36,-0.101,1.88,0.178,-0.0446,0.146
CTTTCCC,-0.00187,0.0629,0.0731,-0.34,0.115,-0.432,-0.158,0.0744,0.112
AGTTCTC,-0.17,-0.11,-0.0237,0.128,-0.0888,-0.168,-0.749,-0.109,-0.0673
TCCGCTC,-0.0412,0.00566,0.115,-0.279,0.121,-0.352,-0.0445,-0.183,-0.193
ACCCACT,-0.0412,0.0177,-0.447,-2.5,-0.0035,-0.841,-0.26,-0.0542,-0.145
TCCTTCT,-1.21,-0.0733,-0.0792,-2.42,-0.0173,-0.781,-2.9,-0.116,-0.132
GGGTAAA,0.0634,0.101,0.848,2,0.00196,2.23,0.211,0.134,0.136
TGGGGTC,0.185,0.0968,0.771,1.5,0.0582,2.03,0.293,0.0637,0.153

Sequence,uncleaved DNA left (log2) [1],uncleaved DNA left (log2) [2],uncleaved DNA left (log2) [3],uncleaved DNA left (log2) [4],uncleaved DNA left (log2) [5],uncleaved DNA left (log2) [6],uncleaved DNA left (log2) [7],uncleaved DNA left (log2) [8],uncleaved DNA left (log2) [9]
CTGGATC,0.133,-0.0605,0.192,0.825,0.0803,0.908,0.00549,-0.0405,0.0135
CGAAGCA,0.118,0.142,0.311,0.959,0.0921,0.958,-0.195,0.0436,0.176
GGTGTTA,0.15,0.0577,0.418,0.795,0.072,1.86,-0.0581,0.128,0.19
TAGCGCA,0.0329,-0.00237,-0.222,-0.15,-0.0526,-0.211,-0.136,-0.181,-8.2e-07
AACCTCC,-0.153,0.0154,0.113,-0.481,0.0183,0.533,-0.0895,0.0348,-0.0216
GTGGCGT,-0.138,-0.0903,0.339,0.833,-0.147,0.59,-0.0168,-0.11,0.0208
GCGGCAC,-0.144,0.0805,0.595,1.39,-0.0373,1.85,0.141,0.0238,0.146
CCAACCT,-0.223,-0.093,-0.343,-2.51,-0.0966,-0.372,-0.823,-0.0577,-0.0641
TGCACAT,0.109,0.0385,0.595,1.34,-0.0709,1.52,0.142,0.123,0.142
TCTAGAC,0.0208,-0.197,0.213,0.0464,0.0112,0.0638,0.118,-0.104,-0.0386
TTCAGTA,0.0338,-0.128,0.0875,-0.878,-0.0316,-0.383,-0.145,-0.0385,-0.033
TCTCGTT,0.226,-0.01,0.0384,-1.29,0.205,-0.584,-0.41,0.135,-0.0673
AAGGTTG,0.101,0.00146,0.116,1.01,0.0894,0.771,0.214,0.00641,0.0129
GACTGGA,-0.0526,-0.0578,0.0413,0.411,-0.138,0.794,-0.542,-0.0914,-0.0882
CTTGGGA,0.0561,0.0155,-0.268,-0.083,0.205,-0.828,0.147,0.0711,0.0546
TCAGATT,0.00255,-0.224,-0.158,-2.08,-0.0256,0.123,-0.108,-0.101,-0.0746
ACTATTC,0.00565,0.00393,-0.255,-0.187,-0.0153,-0.969,0.054,-0.0855,-0.0551
CTTACTG,-0.0917,-0.0117,-0.161,-0.247,-0.126,0.698,-0.0964,-0.0697,0.0113
GGGGAAA,0.0667,0.132,0.909,2.06,0.117,2.35,0.285,0.182,0.264
ACTACTC,0.000609,-0.0174,-0.0245,-0.462,-0.0417,-0.487,0.0213,-0.15,-0.0445
